# A collection of fitness landscapes (doi:10.1126/science.1257360)
# The list shows a part of the results.
# B1: PhoQ; a variant is named by its letters at X, in order, P23837 (parent)
# chain: MKKLLRLFFPLSLRVRFLLATAAVVLVLSLAYGMVALIGYSVSFDKTTFRLLRGESNLFYTLAKWENNKLHVELPENIDKQSPTMTLIYDENGQLLWAQRDVPWLMKMIQPDWLKSNGFHEIEADVNDTSLLLSGDHSIQQQLQEVREDDDDAEMTHSVAVNVYPATSRMPKLTIVVVDTIPVELKSSYMVWSWFIYVLSANLLLVIPLLWVAAWWSLRPIEALAKEVRELEEHNRELLNPATTRELTSLVRNLNRLLKSERERYDKYRTTLTDLTHSLKTPLXXLQXXLRSLRSEKMSVSDAEPVMLEQISRISQQIGYYLHRASMRGGTLLSRELHPVAPLLDNLTSALNKVYQRKGVNISLDISPEISFVGEQNDFVEVMGNVLDNACKYCLEFVEISARQTDEHLYIVVEDDGPGIPLSKREVIFDRGQRVDTLRPGQGVGLAVAREITEQYEGKIVAGESMLGGARMEVIFGRQHSAPKDE
# Variants of: B1
# Assay: enrichment ratio after two sorts for PhoP signalling (ratio (wild type AVST 3.29)); higher = more functional
# Conditions: with PhoP (E. coli)
row,Variant,enrichment ratio
1,WYLE,≤ 0.25
2,AITF,15
3,WLVI,≤ 0.25
4,YAHY,≤ 0.25
5,HMRT,≤ 0.25
6,KKTV,0.887
7,RKER,≤ 0.25
8,QVPQ,≤ 0.25
9,VTWR,≤ 0.25
10,AHPM,≤ 0.25
11,TAYA,4.54
12,AKTP,≤ 0.25
13,VGAG,≤ 0.25
14,SKNF,≤ 0.25
15,VGNW,≤ 0.25
16,SDFT,≤ 0.25
17,MYCW,≤ 0.25
18,NMCC,≤ 0.25
19,IIAR,≤ 0.25
20,DRLN,≤ 0.25
21,KMVT,≤ 0.25

row,Variant,enrichment ratio
1,TELN,21.6
2,WDHT,≤ 0.25
3,PALH,≤ 0.25
4,APGL,≤ 0.25
5,SYHN,≤ 0.25
6,YWCG,≤ 0.25
7,NIYG,≤ 0.25
8,GHTM,≤ 0.25
9,TCNQ,≤ 0.25
10,DVYW,≤ 0.25
11,RNDG,≤ 0.25
12,GHRD,≤ 0.25
13,LDES,≤ 0.25
14,RRCH,≤ 0.25
15,NKIK,≤ 0.25
16,LKSM,≤ 0.25
17,PQCM,≤ 0.25
18,VRHP,≤ 0.25
19,DKHC,≤ 0.25
20,TKPI,≤ 0.25
21,VNLC,3.35

row,Variant,enrichment ratio
1,HKEW,≤ 0.25
2,IWTH,≤ 0.25
3,KIDS,≤ 0.25
4,QRQA,≤ 0.25
5,ERTY,≤ 0.25
6,GFYE,≤ 0.25
7,YECD,≤ 0.25
8,HRYY,≤ 0.25
9,DQCN,≤ 0.25
10,DRMH,≤ 0.25
11,QGAR,≤ 0.25
12,SHGV,≤ 0.25
13,WNGP,≤ 0.25
14,QSKD,≤ 0.25
15,LHCY,≤ 0.25
16,TAGT,7.68
17,RNKT,≤ 0.25
18,TQIN,≤ 0.25
19,RHIA,≤ 0.25
20,GMYM,≤ 0.25
21,PVDI,≤ 0.25

row,Variant,enrichment ratio
1,KVMR,≤ 0.25
2,PYSN,≤ 0.25
3,GVQL,≤ 0.25
4,PRDP,≤ 0.25
5,LFHE,≤ 0.25
6,FFRF,≤ 0.25
7,ACWI,≤ 0.25
8,SNSM,33.4
9,YSVF,≤ 0.25
10,IHVN,≤ 0.25
11,EQYF,≤ 0.25
12,RVCN,≤ 0.25
13,VKHL,≤ 0.25
14,HAMM,7.86
15,PLLL,≤ 0.25
16,WIKG,≤ 0.25
17,NDPE,≤ 0.25
18,MCYS,12.8
19,IEAA,≤ 0.25
20,WGFH,≤ 0.25
21,MHRC,≤ 0.25
